The full ranking holds about 1,800 sequences; the median of “median log2 fold change of GCK-ALFA target abundance (FLAG IP / Myc IP barcode read proportion)” is about 0.14, and the lowest 2% start at about -0.84. The list shows a part of the results.
T1: TRAF2, Q12933
T1 chain: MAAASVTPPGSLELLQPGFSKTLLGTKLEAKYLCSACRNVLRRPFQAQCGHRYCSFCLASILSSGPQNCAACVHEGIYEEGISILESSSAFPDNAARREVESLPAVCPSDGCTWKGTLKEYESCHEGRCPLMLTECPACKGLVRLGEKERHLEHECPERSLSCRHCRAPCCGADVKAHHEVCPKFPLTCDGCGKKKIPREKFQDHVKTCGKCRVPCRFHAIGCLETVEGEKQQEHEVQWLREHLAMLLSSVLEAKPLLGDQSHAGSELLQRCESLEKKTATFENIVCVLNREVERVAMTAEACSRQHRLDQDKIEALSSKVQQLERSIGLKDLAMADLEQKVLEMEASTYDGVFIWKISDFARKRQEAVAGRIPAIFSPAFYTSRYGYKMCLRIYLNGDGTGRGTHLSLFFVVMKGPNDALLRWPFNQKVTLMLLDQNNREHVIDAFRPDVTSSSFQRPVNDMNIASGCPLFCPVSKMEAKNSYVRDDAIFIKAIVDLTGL

B1: traf2_out_18_167_1880 (protein)
chain: SAELEAEYQAASDKLVEYSEIRRWLQLALEALKRSREEALKVLREALEKFPDSEVLKEALEVAETKSDEEFRAFLESKIEELQKKANEEYKKLEELRKKK
B2: traf2_out_14_166_1287 (protein)
chain: MTEEEIKRIREIVDKLEPLTDEAVKKAEEILEKNKEKLSPEDLAELNKLLEIARRNIGSSAINALREMSKIFKKAGLEEAAKEFEKLADELEKKLSELNK
B3: traf2_out_17_162_1481 (protein)
chain: AALAATLAALRAELAALREELERLEKKLEELDSLSKEELTDLLVEASEARRRALRLAERLRALKPEIGAETAGALIAEAEAIAERLQRIANEIYKELEKK
B4: traf2_out_20_3_2257 (protein)
chain: EELRRELERKLEEAERLLEEVEPLLPPEDAARLRELLERAREAFEKDLTDALVYLSELRRAALELAEEARAAGDEETAALLEELAETAQRAMNLVYKLIE
B5: traf2_out_20_38_2005 (protein)
chain: SEEEEEERRLKIIIEAANEELDRWEKEIEELKAEGKTVEEIAERAKEEVRRLLTAAGLEEEAEELIAEIDLVLDSPDALDAIARILARAKALVVQKELNK
B6: traf2_out_20_38_2029 (protein)
chain: SEEEEEERRLEELIKVANDSYDKYTKKFEKLVAEGKTVEEIAELAKKEVKEKLTAAGLEEEAKELIEDIDRALSSPNALRLIVRILARADALVHQKKINE
B7: traf2_out_12_187_968 (protein)
chain: SVAAELQEAAKAALEQALKALRKAAPEHPRFQRMLKRLEEVAELLKKHPEVAADVAVAASLVLRAVRLLEAGLPQEEIDAALEAAEAELEEVLKKLKKLE
B8: traf2_out_13_95_1223 (protein)
chain: SKEANEELRKVSNEMLDQAEAVIDALAARLAPHPETAPDIAAIRAALARQGIRQAIAVLRAAAARHPEVAADYLAAADALEALIREAGKKVAEIDKKAKE
B9: traf2_out_13_169_1029 (protein)
chain: SELRKKTEEELKKALERYLKENEEKIKELKAKGTPLAKRIAELAEKVRKLIDELLEKGDLYDATGLASRLLNILELAEEDPEAALKALEELLKEAERLVA
B10: traf2_out_18_3_1941 (protein)
chain: NEEKLKEISDEIDKIIDEVTAKAREALDRGLAEHPELAAEFEALRADLEAGAAPFGILDELAELWERAGDAAAAAELRAFLAEKRAKLQELVDEYEKLRK
B11: traf2_out_17_178_1745 (protein)
chain: TKEEHRKKAMEAADKLLDLTAKAAAEAKALLEAEGKLTPELAAQLDYVAKTSNLEAAEEVLTKAAAQSSSAEELNKILADLKAEAKPLRQEIGEEVNKML
B12: traf2_out_18_3_1909 (protein)
chain: SEEERKKVSDEIDKIVDEATAKAREALDRLEREHPEYAAEARRLRADLDAGAGPFGILEALAELAERAGDEEEAAEIREFLRKKKKEFQKLVDKYEELLK
B13: traf2_out_15_17_1311 (protein)
chain: SAEAALNEALRKAMNEVLDKDEELLDKLIKEAREEAKKIGKLEELEKLIEESKDYSVISRILILAQWAKEKGLEELAKKLEEAAEEARKARSEAARAVEK
B14: traf2_out_1_27_1000 (protein)
chain: STEEERELLRRANREIGRASPEEQVEIIKRTLREALERGIDSPEHIAVVLILMLGDEETRERAIEAAREVLREAGISEEAIERMERRVRSGWERLDRLLA
B15: traf2_out_11_169_819 (protein)
chain: EEAEKNRKINDFALEKNDEAKEKLLEHAKALAKKAGLDVEEVEKIFEENKNKSLSAVAAALIDYFRSKGKEEEAAAVLAKYEELKEEINKAVTEKIKELE
B16: traf2_out_6_3_2532 (protein)
chain: SHMSLLKDAKTVLENMGITTIEELKALVKAEVNAIKKLISRKDVDEADLAGARSVVALSRAMVEVAKETLPDFTEEDYEELNKLLEETEKLIKEREEKLK
B17: traf2_out_13_95_1090 (protein)
chain: SKEVAEKIMEIADKMLDKVLEELKKLLEKAKKDPELKPEVEKALYLAETQSINEAIALLKELAKKYPEYKEEFEETIEKIEEIKREAGKEVAKILKEEEE
B18: traf2_out_13_95_1204 (protein)
chain: EEEKTKKIREVTNAIADELLDAADATAAAVEAATGDAAAAAAVRAALRGHGVSAAIQTLRDLAAADPAHAATYEAAAAALEAARRAAGRRVAEELKRIEE
B19: traf2_out_3_89_2284 (protein)
chain: SHHMEALIEEARKIAEAYAKGFRKSLTFVAKQMVAEGHSLETLEGVANAAKTALVEEFRESLKERGLDEETIKEIVEELRKKLDEIVKEVIAEAKKARAA
B20: traf2_out_20_3_2143 (protein)
chain: EELEKKLEEELEKALKLLEEAAKLADKETAAVLKKLIKELEASKELSYSDRLVTLSEIRRTVLELAEKARAAGDEKLAELLEKAAEALNRAMNIVMKIIE
B21: traf2_out_17_162_1579 (protein)
chain: SELEEKLKELEEKLKELEKELKRFKEELKNLENKSKEELTDLLVEVSEARREALQLAEELKKLEKEIGEEKAKELIEKAEEIAEEFQRIANEIYKELLKK
B22: traf2_out_19_16_1973 (protein)
chain: KEERIEKIEKELEEIKKEVEKLEKYFEENEETLTREELSDLLVEASELKRKAQEILEELEKLKDYDPERVEKLKKEAEEIIEEAQRLMNRLVDKYLELLK
B23: traf2_out_17_178_1704 (protein)
chain: TKEEARRRISEATDEMIDLAEAAAQRLLEIAEEEGDLSPEELAELRRARRLGSARTTLALMERAIPRSRRAAEVQALLDDFRARYAELSREIAEALKEYE
B24: traf2_out_19_146_1961 (protein)
chain: SEEEKLKAFREEAEKRLKDLLESIDYIAKNFGYEEAALYATGAASSFTDRVEAEAAELKKTLSPEMQKKLDALAEELIEKAKKELTKKKEELEKKAAKEK
B25: traf2_out_13_95_1082 (protein)
chain: SKETNEKIMEISDEMLEKGKEILKELAEKVADDPEAKARVEEALHLLEHHGINAAIHLLEKMAEEDEEYKELLEEAIEKLKKIKREAGKKVAELLKEEEE
B26: traf2_out_13_95_1147 (protein)
chain: SRELAEKIMEIADEMLDKILEKLEELLKKAKKAGLKEEEMEKVLYLARYQSVNEAIHLLKELAKEYPELKEELEKTIKELEEIRREAGREVARLIKEEEE
B27: traf2_out_13_95_1197 (protein)
chain: EEEKTKKIREVTNAIADELLARADELAARLEAETGDAAAAARVRAALLGHGVNAAIAVLRELAAADPAHAAAYRAAAAELEAARREAGRRVAEKLKEIEE
B28: traf2_out_13_95_1176 (protein)
chain: SEETKKKINEIADEMLDKVEAILTELQKEVADDPEVAAEVEAILKTARTQGINTALGRLRELQAAHPEHAEKLTAAIDKIEAIREEAGKKVAEILKEEKE
B29: traf2_out_11_169_868 (protein)
chain: EEKEFNRKLIDFALEVEDEAKKELEEFALKLAKEYGLDVEEVKAIFEKNKNSSLSAVASALITYFESKGKEEAAKKILEKYDELKEEINKKVSAKIKELE

Target: T1, TRAF2, Q12933
Test: median log2 fold change of GCK-ALFA target abundance (FLAG IP / Myc IP barcode read proportion) (log2 ratio); each designed protein is fused to an ALFA-tag nanobody in HEK293 cells to bring the named protein to FLAG-tagged glucokinase (GCK); Myc marks an untargeted standard; higher = target protein stabilised (more abundant)
Conditions: target protein: 3xFLAG-MCP-GCK-ALFA reporter; HEK293 landing pad (RPLP)
Method in brief: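 An ALFA-nanobody-fused binder library was recombined into HEK293 landing-pad cells and induced with 2 μg mL^−1 doxycycline. Cells were transfected with a plasmid expressing a FLAG-tagged target and a Myc-tagged standard. After 48 h, lysates underwent anti-FLAG and anti-Myc immunoprecipitation, and circular RNA barcodes were reverse transcribed, amplified and sequenced. Target abundance is the per-binder median log2 ratio of FLAG to Myc barcode read proportions. Barcodes needed ≥10^−7 proportion in both replicates, binders ≥3 barcodes per replicate, and a 10^−6 pseudocount was added; the two replicates were pooled.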

Binder	median log2 fold change
B1	0.282
B2	0.427
B3	-0.17
B4	0.288
B5	-1.09
B6	-1.3
B7	0.253
B8	0.286
B9	0.317
B10	0.201
B11	0.257
B12	0.0153
B13	0.269
B14	0.155
B15	-0.00406
B16	-1.3
B17	-0.159
B18	-0.0797
B19	-0.43
B20	-0.0877
B21	0.462
B22	0.182
B23	-0.212
B24	0.0223
B25	-0.0214
B26	-0.509
B27	0.104
B28	0.203
B29	-0.416
